Assay results from PubChem BioAssay AID588342 (National Center for Advancing Translational Sciences (NCATS), 2011).
Where “and” joins values, the source holds several entries; their conditions need not be identical. Identical values can stand only once. The campaign covered roughly 360,000 compounds. About 25,000 (6.9%) were called active. Inconclusive means that the source gave no clear call. Such entries were picked first, then a sample of the others. Calls follow the shape of the dose curve; as a rule, active = well fitted inhibition curve with a large enough effect; inconclusive = small, poorly fitted or top-dose-only effect; inactive = flat fitted curve, though single readings scatter. Potencies beside an inconclusive call are fits to weak or partial responses and may not hold up.

These compounds were tested against Luciferin 4-monooxygenase (Photinus pyralis) (UniProt P08659) (assay: qHTS profiling assay for firefly luciferase inhibitor/activator using purifed enzyme and Km concentrations of substrates (counterscreen for miR-21 project)). Settings: purified FLuc, luminescence inhibition; series mostly up to 57.5 µM.
Procedure, shortened: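 Biochemical qHTS of compounds, final roughly 60 µM downward over six points, against 10 nM purified firefly luciferase using Km concentrations of substrates (10 uM D-luciferin, 10 uM ATP) in Tris acetate pH 7.5 buffer; luminescence output.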
Also: nearly all actives have a fitted effect of over 55% in size.
Potency is read from the fitted curve at half-maximal effect; tags tell the direction and shape of the fitted curve.

UniProt P08659, sequence (P08659 whole entry, looked up): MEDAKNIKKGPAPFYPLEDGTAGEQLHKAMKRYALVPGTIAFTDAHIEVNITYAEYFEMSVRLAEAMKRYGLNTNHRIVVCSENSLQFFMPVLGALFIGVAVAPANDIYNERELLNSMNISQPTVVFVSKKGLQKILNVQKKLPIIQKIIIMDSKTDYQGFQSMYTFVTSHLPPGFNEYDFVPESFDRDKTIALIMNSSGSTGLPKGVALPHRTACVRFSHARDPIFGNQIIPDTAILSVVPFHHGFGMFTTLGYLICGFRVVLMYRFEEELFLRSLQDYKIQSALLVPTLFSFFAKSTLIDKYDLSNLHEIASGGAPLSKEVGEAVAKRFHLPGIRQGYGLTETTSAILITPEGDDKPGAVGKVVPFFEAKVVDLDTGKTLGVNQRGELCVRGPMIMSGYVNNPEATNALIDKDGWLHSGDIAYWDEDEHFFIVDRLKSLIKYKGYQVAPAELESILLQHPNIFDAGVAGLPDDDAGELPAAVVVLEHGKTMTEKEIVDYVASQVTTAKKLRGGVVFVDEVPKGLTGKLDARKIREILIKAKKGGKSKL

| Compound | Potency |
| --- | --- |
| Cc1ccc(C2(C)NC(=O)N(CC(=O)N(C)CC(=O)Nc3cccc4ccccc34)C2=O)cc1 (stereo not given) | inactive |
| COc1cc(OC)c(C(=O)O/N=C(\N)c2ccc(C)cc2)cc1OC | inconclusive: 37.9 µM [inhibitor, partial curve, poor fit] |
| CC(=O)Nc1ccc(NC(=O)CSc2nnc3ccc(-c4cccnc4)nn23)cc1 | inconclusive: 30.1 µM [inhibitor, partial curve, poor fit] |
| CN(CCC#N)c1ccc(/C=C(\C#N)c2ccccn2)cc1 | active: 1.51 µM |
| CC(C)CCNC(=O)CCn1nc(-c2ccc(Cl)cc2)ccc1=O | inactive |
| Cn1c(=O)c(C(=O)COC(=O)c2cc(-c3ccco3)nc3ccccc23)c(N)n(CC2CC2)c1=O | inconclusive: 21.3 µM [inhibitor, single point] |
| Cc1ccc(/C=C/C(=O)Nc2ccc(S(=O)(=O)Nc3onc(C)c3C)cc2)cc1 | active: 15.1 µM |
| Oc1c(Cl)cc(Cl)cc1CNc1nc2ccccc2[nH]1 | inconclusive: 26.9 µM [inhibitor, partial curve, poor fit] |
| COc1ccc(C(=O)NC(=S)NNC(=O)CNC(=O)C2CCCCC2)cc1 | inconclusive: 13.5 µM [inhibitor, partial curve] |
| COc1ccc2c(c1)CCc1c(C(=O)NCc3cccnc3)noc1-2 | inconclusive: 5.36 µM [inhibitor, full curve, poor fit] |
| COc1ccccc1-c1cc(C(=O)NCc2ccco2)no1 | active: 15.1 µM |
| Fc1ccc2c(c1)/C(=N/Nc1ccccn1)CCS2 | inconclusive: 21.3 µM [inhibitor, single point] |
| Nc1c(C(=O)NC2CC2)sc2nc3c(c(-c4ccco4)c12)CC/C3=C/c1ccco1 | inconclusive: 30.1 µM [inhibitor, partial curve] |
| Cc1nc(-c2ccccc2)sc1CCNC(=O)c1ccco1 | inactive |
| CC(=O)N1c2ccc(S(=O)(=O)N3CCC(C(=O)NCc4ccc(Cl)cc4)CC3)cc2CC1C (stereo not given) | inactive |
| Cc1csc(NC(=O)c2ccncc2)n1 | inconclusive: 37.9 µM [inhibitor, partial curve, poor fit] |
| CC(=O)Nc1ccc(C(=O)OCCC(C)C)cc1 | inconclusive: 26.9 µM [inhibitor, partial curve] |
| COc1ccc(-c2noc(-c3ccccc3C(=O)NCC3CCCO3)n2)cc1 (stereo not given) | active: 9.53 µM |
| CCCCn1c(COc2cccc(OC)c2)nc2ccccc21 | inconclusive: 23.9 µM [inhibitor, single point] |
| CCN1C(=O)[C@H]2[C@@H](c3ccc(-c4ccc(F)cc4)c(OC)c3)N[C@@](CC(C)C)(C(=O)OC)[C@H]2C1=O | inactive |
| CCOC(=O)C1CCN(C(=O)CN2C(=O)c3ccccc3Sc3ncccc32)CC1 | inactive |
| COc1cccc(-c2csc(NNC(=O)c3cccs3)n2)c1 | inconclusive: 37.9 µM [inhibitor, single point] |
| CC(C)/C=C1\CC/C(=C\c2ccc(N(C)C)cc2)C1=O | active: 0.953 µM |
| Cc1ccc(C(=O)c2c3ccc([N+](=O)[O-])cc3[n+]([O-])n2CCCC(N)=O)cc1 | inconclusive: 37.9 µM [inhibitor, partial curve, poor fit] |

| Compound | Potency |
| --- | --- |
| CCc1cc(C(=O)Nc2nnc(C3CC3)s2)sc1C | inconclusive: 21.3 µM [inhibitor, partial curve, poor fit] |
| COC(=O)c1ccc(CSc2n[nH]c(-c3ccccc3)n2)o1 | inconclusive: 21.3 µM [inhibitor, partial curve, poor fit] |
| COc1ccccc1C(=O)NNC(=O)c1ccc(Cl)cc1 | active: 15.1 µM |
| O=C(Oc1ccc(C(=S)N2CCOCC2)cc1)c1ccc(F)cc1 | inconclusive: 26.9 µM [inhibitor, partial curve, poor fit] |
| O=C(/C(=C/c1cccnc1)n1ccnc1)c1ccc(Cl)cc1Cl | inactive |
| CS(=O)c1ccccc1-c1nc(-c2ccc(Cl)cc2)no1 (stereo not given) | inconclusive: 30.1 µM [inhibitor, single point] |
| CCOC(=O)c1ccc(N2C(=O)c3n[nH]c(-c4cccs4)c3C2c2ccc(C)cc2)cc1 (stereo not given) | inconclusive: 37.9 µM [inhibitor, partial curve, poor fit] |
| COc1ccccc1-c1oc2ccccc2c1C#CCCO | inconclusive: 37.9 µM [inhibitor, partial curve, poor fit] |
| Clc1cccc(-c2cc3nc4c(c(N5CCOCC5)n3n2)CCCC4)c1 | inconclusive: 33.8 µM [inhibitor, partial curve, poor fit] |
| Cc1ccc(-n2ncc3c(=O)n(CC(=O)N4CCN(c5ccccc5)CC4)cnc32)cc1 | inconclusive: 15.1 µM [inhibitor, partial curve, poor fit] |
| CCC(C)(C)c1nnc(NC(=O)C2CCN(C(=O)c3ccco3)CC2)s1 | inconclusive: 13.5 µM [inhibitor, partial curve, poor fit] |
| CC(C)(C)c1ccc(-c2noc(CCC(=O)Nc3cccnc3)n2)cc1 | active: 1.69 µM |
| Cc1nc(C)c(-c2ccc(SCC(=O)Nc3ccccc3F)nn2)s1 | inconclusive: 37.9 µM [inhibitor, single point] |
| COc1ccc(Nc2cc(C)nc(NCc3ccccc3)n2)cc1 | inactive |
| Cc1cc2ccccc2n1-c1ccc(C(=O)N2CCCCC2)s1 | inconclusive: 37.9 µM [inhibitor, partial curve, poor fit] |
| CCOC(=O)C1=C(C)N(c2ccc(OC)cc2)C(=O)/C1=C\c1cccs1 | inactive |
| O=C(c1cc2ccccc2o1)N1CCCC1 | inactive |
| O=c1c2sc(-c3ccccc3)cc2nc2n1CCCCC2 | active: 2.13 µM |
| O=C(NCc1cc([N+](=O)[O-])ccc1O)c1cccnc1Sc1ccccc1 | active: 16.9 µM |
| Cc1nc2ccc(NC(=O)NC(=O)c3c(Cl)cccc3Cl)cc2o1 | inconclusive: 21.3 µM [inhibitor, partial curve, poor fit] |
| CCc1ccc(-c2ccc3nnc(SC)n3n2)cc1 | inconclusive: 15.1 µM [inhibitor, partial curve] |
| O=C(Nc1ccc2nc3n(c(=O)c2c1)CCCC3)c1ccccc1F | inconclusive: 37.9 µM [inhibitor, single point] |
| CC(C)c1cc(C(=O)N/N=C/C(Br)=C/c2ccccc2)n[nH]1 | inconclusive: 9.53 µM [inhibitor, partial curve] |
| CCS(=O)(=O)C1=NN2C(=N)/C(=C\c3ccc(OC(=O)c4ccco4)c(OC)c3)C(=O)N=C2S1 | inconclusive: 19 µM [inhibitor, partial curve] |

| Compound | Potency |
| --- | --- |
| COc1cc(SC)ccc1C(=O)Nc1ccc(Br)cn1 | active: 0.0757 µM |
| CSc1ccccc1C(=O)C1CCCN(C(=O)c2ccc(N3CCOCC3)cc2)C1 (stereo not given) | inactive |
| CCCNC(=O)C(Cc1ccccc1)NC(=O)c1ccc(C(C)(C)C)cc1 (stereo not given) | inconclusive: 26.9 µM [inhibitor, partial curve, poor fit] |
| COC(=O)N1N=C(c2ccccc2)CC1(O)C(F)(F)F (stereo not given) | inconclusive: 37.9 µM [inhibitor, single point] |
| O=C(O)c1ccc(N=NN2CCCCCC2)cc1 | active: 10.7 µM |
| CC(=O)Cn1nnc2sc(-c3ccccc3)cc2c1=O | inconclusive: 13.5 µM [inhibitor, partial curve] and inconclusive: 23.9 µM [inhibitor, single point] |
| CCC(=O)c1ccc(OCC(=O)Nc2ccccc2C(=O)NC2CC2)cc1 | inactive |
| Cc1ccc2nc(/C(C#N)=C/c3cn[nH]c3-c3ccc(F)cc3)[nH]c2c1 | inconclusive: 21.3 µM [inhibitor, partial curve, poor fit] |
| c1ccc(-c2nc(-c3nccc4ccccc34)oc2-c2ccccc2)cc1 | active: 6.01 µM |
| Cc1c(C(=O)OCC(=O)N2CCCC(C)C2)oc2ccccc12 (stereo not given) | inconclusive: 21.3 µM [inhibitor, partial curve, poor fit] |
| COc1cccc2[nH]c(C(=O)NC(C)c3ccccc3)cc12 (stereo not given) | inactive |
| COc1cccc(C2(O)CC(C(F)(F)F)=NN2C(=O)c2ccccn2)c1 (stereo not given) | inconclusive: 26.9 µM [inhibitor, partial curve] |
| COc1ccc(/C=N/NC(N)=S)cc1OC(=O)c1cccc2ccccc12 | active: 6.01 µM |
| Cc1cc2nc3c(=O)n(CCc4ccccc4)c(=O)[nH]c3nc2cc1N | inactive |
| Cc1ccc(-c2cc(C(=O)N3CCN(c4ccc(F)cc4)CC3)c3ccccc3n2)o1 | active: 3.38 µM |
| Cc1c(NC(=O)CSCc2ccccc2)cccc1C(=O)O | inconclusive: 23.9 µM [inhibitor, single point] |
| Cn1nc(-c2ccc(OCC(=O)Nc3ccccc3)cc2)c2ccccc2c1=O | inactive |
| O=C(CCC(=O)N1CCN(c2ccc(F)cc2)CC1)N1CCN(c2ccc(F)cc2)CC1 | inactive |
| COc1ccc2cc(S(=O)(=O)N3CCCCCC3)ccc2c1 | inconclusive: 30.1 µM [inhibitor, partial curve, poor fit] |
| COc1cccc(CCC(=O)Nc2cc3c(cc2C(=O)O)OCCCO3)c1OC | inconclusive: 37.9 µM [inhibitor, partial curve, poor fit] |
| CC(=O)Nc1ccc(/C=C/c2ccc3c([N+](=O)[O-])cccc3n2)cc1 | inconclusive: 6.01 µM [inhibitor, partial curve, poor fit] |
| Cc1ccc(C(=O)CN2C(=O)C(C)Oc3ccccc32)cc1 (stereo not given) | inconclusive: 21.3 µM [inhibitor, single point] |
